Here are results for 167 variants from the RNAGym collection of RNA variant scans (doi:10.7554/elife.90254).

Read counts are not given, so values of variants with three or more changes are uncertain.

First the molecules themselves.
B1: LINE1-mini (parent)
chain: GGCAGAGCUCAACACAGCGUGGCAAAGUGGCUGUGGCUAGACUGCC

Variants of B1 are the subject of this data set. Briefly: self-cleavage, relative activity (ratio to wild type); higher = more cleavage; in vitro, sequencing; the parent is a self-cleaving ribozyme.
As for G2A A24U G44C, the self-cleavage is 0.55.
Next, G2A G5A A6G C15U C45G: 0.54; G2A C18A G40A: 0.06; G2A C15U C23A G40C A41U: 0.23.
For the variant G2A C3U A4U G30A, the self-cleavage amounted to 0.23.
In the case of G2A A11G G30A, the self-cleavage was 0.05.
Turning to G1U G7C C8A C13U, the self-cleavage came to 0.05.
Next, G2A G7A A26C U28G G44U: 0.37; G2A C3U U9A A39C: 0.22; G2A C37G G44A: 0.3.
Next, G2A A6U G19C: 0.36; G2A C3U C13A C18U U28C: 0.11; G2A A4G C31U A39C G40C: 0.1.
With G2A A12C C23U G33U C42U, the self-cleavage is 0.03.
On to G1U U43C C45A, for which the self-cleavage came to 0.
As to G2A A4G C13A G17U U34A G36A, the self-cleavage worked out at 0.5.
For the variant G1U G36U C42U, the self-cleavage was 0.12.
Next, G2A G5U U32G: 0.21.
Take G2A C13A A16G G27C U34G G35U: the self-cleavage is 0.02.
Next, G2A C10U C46A: 0.21; G2A C23A G35C: 0.05; G2A G7U G27C: 0.18.
With G2A C8U C13G A14U G30U C46G, the self-cleavage was 0.68.
For G2A C8U A12U, the self-cleavage was determined as 0.07.
As for G2A C15G A26U, the self-cleavage amounted to 0.01.
With G1U G7A C23U C46A, the self-cleavage was 0.12.
Regarding G2A G5C G27U, the self-cleavage was determined as 0.1.
Regarding G2A G7U C8G G21C C42G, the self-cleavage came out at 0.45.
As for G2A A24U C42U, the self-cleavage turned out to be 0.29.
With G1U G21A A26G U32C G40A the figure was 0.02; with G2A C10A G30C U43A, 0.02.
As for G2A G7A A11C G30U, the self-cleavage came out at 0.03.
In the case of G2A A6U C37A U43C, the self-cleavage came to 0.44.
With G2A G17A G35C the figure was 0.32; with G2A A6U G17C A24U A25G G27C G36C C46U, 0.07.
G2A G19A G21C A25G A26G: the self-cleavage came to 1.04.
Turning to G2A A16U G27U, the self-cleavage was 0.12.
Next, G2A A16U G27A: 0.06; G1U G7U G29U G33C: 0.04; G1U U9C C13A A16C: 0.01.
With G2A G7A G40U C46G the figure was 0.87; with G1U G21A C23A G29A U43A, 0.03; with G2A A4U C8G U43A, 0.02.
As to G2A A14G A25U, the self-cleavage worked out at 0.31.
With G2A G5A C13A A14U G29A C31U, the self-cleavage came out at 0.6.
On to G2A A4G A14C U34A, for which the self-cleavage was 0.39.
As for G2A A25U G44U, the self-cleavage was 0.48.
G1U G22C G44U: the self-cleavage worked out at 0.17.
For the variant G2A G17U C42U, the self-cleavage stood at 0.14.
Consider G2A A12G C23G, for which the self-cleavage was 0.08.
For the variant G2A A11C G44C C45U, the self-cleavage came out at 0.01.
G2A G5U C8U G36U: the self-cleavage was 0.19.
In the case of G2A G5C A12C G22U U28A A39C C46U, the self-cleavage was determined as 0.01.
In the case of G2A A12U G36U U38A G40C, the self-cleavage was determined as 0.02.
In the case of G2A G5C C13A C23G U38G, the self-cleavage is 0.08.
As to G1U U34C G35A C42G, the self-cleavage worked out at 0.01.
Next, G2A C3A G7A A16U G17C U28C G40C: 1.49; G1U G21U U32C: 0.06.
As to G2A G5A A24U U34C, the self-cleavage was 0.17.
Consider G1U U9G C23A G30U A41U, for which the self-cleavage worked out at 0.03.
Turning to G1U G29A C37A C46G, the self-cleavage is 0.
With G2A A12C U20A A41U C45U, the self-cleavage was 0.01.
Turning to G2A A16U C31U, the self-cleavage is 0.08.
With G2A A14U C45A, the self-cleavage was found to be 0.08.
For G2A G7C C37A U38A, the self-cleavage worked out at 0.24.
With G1U U9G G27A U43C the figure was 0.03.
As for G2A G17U A24G G40A, the self-cleavage was found to be 0.2.
On to G1U G33C U34A, for which the self-cleavage turned out to be 0.03.
Regarding G1U G17U G27U U28G G29U G30A, the self-cleavage is 0.04.
For G2A A14C A39G, the self-cleavage amounted to 0.04.
Regarding G2A A26U G35A, the self-cleavage came to 0.02.
In the case of G2A A26U G35U, the self-cleavage stood at 0.4.
For the variant G2A C18G G22C G27U, the self-cleavage stood at 0.03.
G2A A4G G17C A24C G29C G30C G35C G44A: the self-cleavage was 0.01.
On to G2A A14G A39U G40U, for which the self-cleavage came out at 0.08.
Consider G2A A6G U28C G33A, for which the self-cleavage came to 0.05.
Regarding G1U U20A A25C, the self-cleavage is 0.08.
For G2A A14C A25C, the self-cleavage turned out to be 0.03.
For G2A A4U C10A G21C G30U C46G, the self-cleavage was 0.06.
With G2A G5C C23U the figure was 0.02.
Take G2A A4U U9C U28G G29U C31U: the self-cleavage came out at 0.03.
In the case of G2A A11G C37A, the self-cleavage was 0.02.
As for G2A A14G C31A C45U, the self-cleavage came to 0.11.
For G2A A4U U20C C31U, the self-cleavage stood at 0.19.
For G2A A6G G33U A39G C42G, the self-cleavage was found to be 0.01.
Next, G1U U20C C23U G29U: 0.21; G2A A4U C13A C18G G19U G29U C37A G44A: 0.14; G2A G7A U9A A39C C45U: 0.49.
As to G2A G5U A14G C18U U28C G35U C37U C46U, the self-cleavage was found to be 0.05.
For G2A G7A A12C C15U C31A G33U C45A, the self-cleavage is 0.14.
Consider G2A G17C U28G C46U, for which the self-cleavage stood at 0.11.
G1U G21U G22U G40A: the self-cleavage stood at 0.05.
Take G2A A14G U32G U38A: the self-cleavage amounted to 0.04.
Take G2A A14C G33U: the self-cleavage stood at 0.04.
Consider G1U G22C U38A, for which the self-cleavage was 0.03.
Turning to G1U G7C C10A C37U C46A, the self-cleavage is 0.
On to G2A C31A C45G, for which the self-cleavage was determined as 0.41.
Regarding G2A C10U G19A U20A G22C G35A, the self-cleavage came to 0.
Turning to G1U G7U C13U A39U, the self-cleavage was found to be 0.04.
With G2A A4U A6C C37U U43A, the self-cleavage amounted to 0.27.
Take G2A C23A C37U C45U: the self-cleavage stood at 0.01.
As for G2A C3U C8U C31G, the self-cleavage stood at 0.45.
On to G2A G5C G7A C10U C23U C42G, for which the self-cleavage came to 0.11.
On to G1U G17U U20G G22A U32G C37U, for which the self-cleavage amounted to 0.
G2A C3A C10G G17A C31G C46U: the self-cleavage is 0.06.
With G2A G7U G22A U28G G40A the figure was 0.18; with G2A C37G G40U, 0.24.
G2A C10U C23A A26U G35U C37G: the self-cleavage stood at 0.07.
With G1U U20C U34C the figure was 0.04.
Regarding G2A A16G A26C U38G C46U, the self-cleavage came out at 0.04.
Turning to G2A A25C G40U, the self-cleavage worked out at 0.15.
Regarding G2A C10U C45A, the self-cleavage stood at 0.09.
Consider G1U G17A G30U G36U U43C C45G, for which the self-cleavage was 0.01.
G2A G5U C37G: the self-cleavage was found to be 0.1.
For G2A C3A G35U, the self-cleavage was 1.75.
With G1U G35U U43G, the self-cleavage is 0.03.
In the case of G2A A12G A16G G17U A39C, the self-cleavage came out at 0.01.
As for G2A A4C G22U U28C G44A, the self-cleavage was found to be 0.12.
As for G2A C10A G29U C46G, the self-cleavage was 0.13.
In the case of G2A A6G C15G A16U U20G A24C U38C A41U C46G, the self-cleavage is 0.01.
Regarding G1U U9C C23A, the self-cleavage was 0.02.
Regarding G1U G7U U20C G30U C46A, the self-cleavage amounted to 0.01.
With G2A A14U G17A the figure was 0.06; with G2A G7A A24C G27C U28A A39U, 0.04; with G2A C15G U20G, 0.05.
For the variant G1U U20C C23A A24G U34G A41G G44U C45G, the self-cleavage amounted to 0.03.
In the case of G2A G7U A14U G19U G22U, the self-cleavage stood at 0.41.
Take G2A A14U G17U G21A G33C: the self-cleavage was found to be 0.05.
For the variant G2A A12G G29A G36C, the self-cleavage turned out to be 0.08.
Take G2A C18A G29U A39C: the self-cleavage turned out to be 0.15.
With G1U G22A A26C the figure was 0.08; with G2A A14U C18U G30A C31A G36A, 0.42; with G1U G7U C13U, 0.04.
Turning to G2A C15U G21A G30A C37U A39C C42A, the self-cleavage is 0.06.
With G2A A4C C8A A12C C46U, the self-cleavage came to 0.04.
With G2A A25U G27A C31G, the self-cleavage was found to be 0.07.
G2A C23G A39G: the self-cleavage amounted to 0.3.
Take G1U G35U C46U: the self-cleavage stood at 0.14.
For G2A G7A C8A A39U, the self-cleavage turned out to be 0.12.
With G2A A41U C46U the figure was 0.31.
For the variant G2A G5C G33U, the self-cleavage was 0.31.
For the variant G2A C8U A14C G21C U32A G40U, the self-cleavage stood at 0.07.
Turning to G2A C13A A24G G30A U38A, the self-cleavage is 0.11.
With G2A G5A C13G G33A U34A the figure was 0.77; with G2A C31A U43C, 0.24; with G2A G7U A14C G19A, 0.27.
As for G2A G5C C13G U20A, the self-cleavage turned out to be 0.02.
Take G2A G5U G7A G22A: the self-cleavage stood at 1.08.
Regarding G1U G7C C8A G21C G22A G30C, the self-cleavage stood at 0.01.
Turning to G2A C10U A16C C31G U34A, the self-cleavage was 0.05.
G2A A11C G40A: the self-cleavage was determined as 0.03.
G2A A14U G19A C23A C31U U38G: the self-cleavage was 0.01.
Next, G1U G29U C31A: 0.05.
As to G2A A14C A24G, the self-cleavage was determined as 0.12.
As for G1U G7A A11G A12G C18U G35C G40A, the self-cleavage is 0.
Turning to G2A C13A C15G G40C, the self-cleavage is 0.01.
With G2A C3A G33U C42G U43C, the self-cleavage came out at 0.46.
For the variant G1U G22U A39U G44A C45U, the self-cleavage was found to be 0.05.
Next, G1U G21U G44A C46A: 0.16; G2A A14G C15A A41G: 0.16; G2A G5U C15A G30A: 0.33.
Next, G1U U20A A25U G30A G36C G40A: 0.02; G2A C8U A12C G33U: 0.12; G2A C10U C15U A26C G40A: 0.03.
In the case of G2A C18U U34A, the self-cleavage came out at 0.03.
Consider G2A G5U C8A G27C, for which the self-cleavage came out at 0.14.
Next, G1U G44A C45A: 0.02.
